From PMC6794377
Residue numbers refer to the chain shown, from its start. No constants are given. Whether binding was seen depends on the method and setting. In cells and extracts the contact can be indirect. Some results given as binding are weak or reduced against the parent protein; the word gives no strength. For some of these results: Where a sequence is shown, tags or fusion partners need not be part of it.

The chains behind the UniProt entries cited, without tags or fusion partners.
UniProt P07814: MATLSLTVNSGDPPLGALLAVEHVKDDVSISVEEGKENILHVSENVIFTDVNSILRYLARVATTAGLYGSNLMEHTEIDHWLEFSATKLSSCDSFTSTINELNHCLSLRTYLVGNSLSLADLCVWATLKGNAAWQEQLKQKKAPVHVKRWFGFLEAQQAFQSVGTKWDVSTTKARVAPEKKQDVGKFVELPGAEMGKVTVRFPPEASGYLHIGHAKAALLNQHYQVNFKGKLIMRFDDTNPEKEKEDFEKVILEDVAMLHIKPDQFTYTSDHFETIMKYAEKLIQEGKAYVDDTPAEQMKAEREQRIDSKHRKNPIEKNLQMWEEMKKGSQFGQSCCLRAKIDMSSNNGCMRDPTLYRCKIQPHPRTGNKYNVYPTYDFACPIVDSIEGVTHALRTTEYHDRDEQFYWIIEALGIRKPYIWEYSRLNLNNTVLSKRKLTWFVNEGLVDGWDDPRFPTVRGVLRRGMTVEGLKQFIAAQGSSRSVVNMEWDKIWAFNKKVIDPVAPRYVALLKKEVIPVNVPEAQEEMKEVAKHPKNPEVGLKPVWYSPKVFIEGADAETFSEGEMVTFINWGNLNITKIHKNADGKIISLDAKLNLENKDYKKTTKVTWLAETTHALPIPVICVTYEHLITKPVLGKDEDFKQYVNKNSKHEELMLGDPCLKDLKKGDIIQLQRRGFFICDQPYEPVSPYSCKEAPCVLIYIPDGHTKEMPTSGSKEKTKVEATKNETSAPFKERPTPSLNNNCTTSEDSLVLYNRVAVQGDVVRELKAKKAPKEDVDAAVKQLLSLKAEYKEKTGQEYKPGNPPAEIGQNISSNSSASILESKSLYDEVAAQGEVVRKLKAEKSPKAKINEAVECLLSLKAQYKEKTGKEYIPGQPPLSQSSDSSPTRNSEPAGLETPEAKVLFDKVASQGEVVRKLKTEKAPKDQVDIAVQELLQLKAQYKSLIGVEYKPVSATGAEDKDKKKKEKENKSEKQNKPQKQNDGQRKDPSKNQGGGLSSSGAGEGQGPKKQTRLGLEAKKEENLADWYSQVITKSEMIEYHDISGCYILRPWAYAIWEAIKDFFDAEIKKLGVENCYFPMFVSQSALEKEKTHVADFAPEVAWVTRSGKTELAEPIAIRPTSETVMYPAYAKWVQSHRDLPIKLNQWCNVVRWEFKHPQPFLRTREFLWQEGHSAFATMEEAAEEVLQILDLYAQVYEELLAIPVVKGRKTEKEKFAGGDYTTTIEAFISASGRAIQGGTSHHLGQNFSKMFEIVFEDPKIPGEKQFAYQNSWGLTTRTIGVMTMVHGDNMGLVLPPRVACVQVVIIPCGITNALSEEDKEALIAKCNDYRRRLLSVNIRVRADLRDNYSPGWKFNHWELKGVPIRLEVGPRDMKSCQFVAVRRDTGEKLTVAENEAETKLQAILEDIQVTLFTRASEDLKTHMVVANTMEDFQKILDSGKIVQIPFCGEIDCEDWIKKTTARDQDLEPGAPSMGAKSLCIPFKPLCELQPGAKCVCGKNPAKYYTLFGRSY

Columns and labels:
[1] = molecular target: T1, native p43 (AIMP1), endogenous in human cells (human (endogenous in HEK293T and HeLa)) (UniProt Q12904); assay: co-IP; transfected HEK293T lysate, IP with anti-p43 antibodies; western blotting
T1 sequence: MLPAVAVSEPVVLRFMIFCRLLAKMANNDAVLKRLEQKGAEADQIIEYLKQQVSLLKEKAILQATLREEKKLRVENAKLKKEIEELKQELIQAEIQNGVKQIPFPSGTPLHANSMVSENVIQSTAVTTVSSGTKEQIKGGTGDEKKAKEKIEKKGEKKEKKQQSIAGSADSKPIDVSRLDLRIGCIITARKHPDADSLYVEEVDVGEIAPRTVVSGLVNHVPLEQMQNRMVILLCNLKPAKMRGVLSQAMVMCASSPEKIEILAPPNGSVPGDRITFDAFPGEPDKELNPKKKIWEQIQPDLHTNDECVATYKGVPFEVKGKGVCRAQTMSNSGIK

[2] = molecular target: T2, C-terminal FLAG-tagged human threonyl-tRNA synthetase-like protein (hThrRS-L-FLAG) (human) (UniProt A2RTX5); assay: co-IP; FLAG-tagged hThrRS-L or mutant overexpressed in HEK293T; IP with anti-FLAG, Dynabeads protein G, 4°C; endogenous partners detected by western blotting
T2 sequence: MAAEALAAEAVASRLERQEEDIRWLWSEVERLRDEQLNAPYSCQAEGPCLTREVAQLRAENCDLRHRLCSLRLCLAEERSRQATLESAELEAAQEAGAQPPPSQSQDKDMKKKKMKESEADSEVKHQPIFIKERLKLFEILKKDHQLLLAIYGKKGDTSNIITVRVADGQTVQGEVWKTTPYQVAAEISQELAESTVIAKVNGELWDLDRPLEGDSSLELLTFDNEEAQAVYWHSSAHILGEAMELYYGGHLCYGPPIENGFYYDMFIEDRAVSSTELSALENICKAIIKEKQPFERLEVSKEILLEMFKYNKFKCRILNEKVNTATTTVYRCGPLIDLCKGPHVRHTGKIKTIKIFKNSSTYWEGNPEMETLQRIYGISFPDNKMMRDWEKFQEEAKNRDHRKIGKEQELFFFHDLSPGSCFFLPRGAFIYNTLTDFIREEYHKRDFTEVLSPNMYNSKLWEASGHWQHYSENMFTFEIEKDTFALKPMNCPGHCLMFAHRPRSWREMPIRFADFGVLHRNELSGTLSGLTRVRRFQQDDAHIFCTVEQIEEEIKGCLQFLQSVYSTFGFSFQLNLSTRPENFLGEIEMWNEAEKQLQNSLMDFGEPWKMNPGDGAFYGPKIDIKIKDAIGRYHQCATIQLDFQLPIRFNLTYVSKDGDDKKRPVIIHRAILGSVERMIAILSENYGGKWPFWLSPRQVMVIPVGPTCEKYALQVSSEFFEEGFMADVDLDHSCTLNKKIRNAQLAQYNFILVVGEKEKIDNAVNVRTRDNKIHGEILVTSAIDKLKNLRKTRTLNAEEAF

[3] = molecular target: T3, hThrRS-L-Y457D with a C-terminal FLAG tag (human) (UniProt A2RTX5); assay: as above
T3 sequence: T2 sequence with Y457D

[4] = molecular target: T4, hThrRS-L-Y619D with a C-terminal FLAG tag (human) (UniProt A2RTX5); assay: as above
T4 sequence: T2 sequence with Y619D

Measured: binding

GluProRS, endogenous in HEK293T (from UniProt P07814 1-1512) (enzyme)
binds: all assays above
